Test results taken from the supplement of paper PMC10320760.
This is a noisy data set.

B1: Ydj1; a variant is named by its letters at X, in order (parent)
chain: MVKETKFYDILGVPVTATDVEIKKAYRKCALKYHPDKNPSEEAAEKFKEASAAYEILSDPEKRDIYDQFGEDGLSGAGGAGGFPGGGFGFGDDIFSQFFGAGGAQRPRGPQRGKDIKHEISASLEELYKGRTAKLALNKQILCKECEGRGGKKGAVKKCTSCNGQGIKFVTRQMGPMIQRFQTECDVCHGTGDIIDPKDRCKSCNGKKVENERKILEVHVEPGMKDGQRIVFKGEADQAPDVIPGDVVFIVSERPHKSFKRDGDDLVYEAEIDLLTAIAGGEFALEHVSGDWLKVGIVPGEVIAPGMRKVIEGKGMPIPKYGGYGNLIIKFTIKFPENHFTSEENLKKLEEILPPRIVPAIPKKATVDECVLADFDPAKYNRTRASRGGANYDSDEEEQGGEGVQCXXX

Variants of: B1
Assay: enrichment factor, frequency at 37 °C / frequency at 25 °C (thermotolerance selection) (ratio); higher = more growth at 37 °C, higher likelihood of farnesylation
Settings: with Saccharomyces cerevisiae ydj1Δ (yWS304); selective temperature 37 °C; reference temperature 25 °C
Experimental: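 Pooled library of all 8,000 Ydj1-CXXX C-terminal motif variants (native CASQ replaced by C + three variable residues, one codon per amino acid) expressed from a CEN plasmid in S. cerevisiae ydj1Δ (yWS304). The library was grown in SC-Ura liquid to A600 ~2 (~8 generations) at permissive 25 °C or selective 37 °C. Reads from 8 and 7 replicates were pooled and variants counted by NGS. Enrichment factor = frequency at 37 °C / frequency at 25 °C, with a +1 correction; it reports Ydj1-dependent thermotolerance, used as a read-out of farnesylation by yeast FTase.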
For TIR, the enrichment factor was 2.49.
With VIR the enrichment factor was 1.81.
With WIR the enrichment factor was 0.4.
For YIR, the enrichment factor was 0.314.
DIR was tested, and the enrichment factor was 0.332.
EIS showed an enrichment factor of 2.55.
With AIS the enrichment factor was 0.736.
In the case of FIS, the enrichment factor is reported as 1.74.
GIS was tested, and the enrichment factor was 1.8.
With HIS the enrichment factor was 1.13.
In the case of IIS, the enrichment factor is reported as 0.834.
In the case of KIS, the enrichment factor is reported as 2.82.
In the case of LIS, the enrichment factor is reported as 1.63.
MIS gave an enrichment factor of 1.96.
NIS showed an enrichment factor of 1.31.
With PIS the enrichment factor was 1.6.
QIS gave an enrichment factor of 1.63.
Variant CIS has an enrichment factor of 0.958.
Work on RIS yielded an enrichment factor of 0.993.
Variant SIS has an enrichment factor of 1.33.
With TIS the enrichment factor was 0.732.
With VIS the enrichment factor was 0.869.
WIS gave an enrichment factor of 1.74.
In the case of YIS, the enrichment factor is reported as 1.06.
DIS was tested, and the enrichment factor was 1.71.
Work on EIT yielded an enrichment factor of 2.98.
For AIT, the enrichment factor was 1.05.
FIT gave an enrichment factor of 0.901.
GIT showed an enrichment factor of 2.09.
For HIT, the enrichment factor was 2.43.
With IIT the enrichment factor was 0.93.
In the case of KIT, the enrichment factor is reported as 1.82.
For LIT, the enrichment factor was 2.03.
Work on MIT yielded an enrichment factor of 1.18.
NIT showed an enrichment factor of 1.1.
In the case of PIT, the enrichment factor is reported as 1.49.
QIT was tested, and the enrichment factor was 2.75.
CIT showed an enrichment factor of 0.837.
RIT gave an enrichment factor of 0.646.
SIT gave an enrichment factor of 1.48.
TIT was tested, and the enrichment factor was 0.729.
VIT gave an enrichment factor of 0.852.
WIT was tested, and the enrichment factor was 1.45.
In the case of YIT, the enrichment factor is reported as 3.09.
DIT showed an enrichment factor of 2.41.
For EIV, the enrichment factor was 1.98.
AIV gave an enrichment factor of 0.641.
Work on FIV yielded an enrichment factor of 0.695.
GIV was tested, and the enrichment factor was 1.18.
In the case of HIV, the enrichment factor is reported as 1.37.
IIV gave an enrichment factor of 1.25.
Work on KIV yielded an enrichment factor of 1.24.
In the case of LIV, the enrichment factor is reported as 0.975.
MIV gave an enrichment factor of 1.33.
Work on NIV yielded an enrichment factor of 0.99.
PIV gave an enrichment factor of 0.722.
In the case of QIV, the enrichment factor is reported as 1.71.
CIV was tested, and the enrichment factor was 0.898.
With RIV the enrichment factor was 1.1.
Variant SIV has an enrichment factor of 1.26.
With TIV the enrichment factor was 0.699.
With VIV the enrichment factor was 1.02.
With WIV the enrichment factor was 2.32.
With YIV the enrichment factor was 4.63.
With DIV the enrichment factor was 1.58.
Variant EIW has an enrichment factor of 1.24.
With AIW the enrichment factor was 1.93.
FIW was tested, and the enrichment factor was 1.3.
In the case of GIW, the enrichment factor is reported as 0.965.
For HIW, the enrichment factor was 2.08.
For IIW, the enrichment factor was 0.579.
KIW was tested, and the enrichment factor was 0.579.
For LIW, the enrichment factor was 0.61.
MIW gave an enrichment factor of 1.85.
Variant NIW has an enrichment factor of 1.74.
Work on PIW yielded an enrichment factor of 0.539.
For QIW, the enrichment factor was 1.87.
CIW gave an enrichment factor of 0.995.
Variant RIW has an enrichment factor of 0.689.
Variant SIW has an enrichment factor of 1.32.
TIW gave an enrichment factor of 1.16.
In the case of VIW, the enrichment factor is reported as 1.09.
Variant WIW has an enrichment factor of 0.695.
Variant YIW has an enrichment factor of 1.16.
